Measurements from PMC4336329 (PLoS ONE, 2015).
Among all 310,000 compounds or so, about 2,200 (0.71%) showed an effect of 50% or more. The effect is printed as a negative number. The list shows a part of the results.

Target: human ether-à-go-go-related gene (hERG) potassium channel (human, UniProt Q12809)
Assay: primary screen, population patch clamp on CHO cells stably expressing hERG

Chain of human ether-à-go-go-related gene (hERG) potassium channel (Q12809 whole entry, looked up): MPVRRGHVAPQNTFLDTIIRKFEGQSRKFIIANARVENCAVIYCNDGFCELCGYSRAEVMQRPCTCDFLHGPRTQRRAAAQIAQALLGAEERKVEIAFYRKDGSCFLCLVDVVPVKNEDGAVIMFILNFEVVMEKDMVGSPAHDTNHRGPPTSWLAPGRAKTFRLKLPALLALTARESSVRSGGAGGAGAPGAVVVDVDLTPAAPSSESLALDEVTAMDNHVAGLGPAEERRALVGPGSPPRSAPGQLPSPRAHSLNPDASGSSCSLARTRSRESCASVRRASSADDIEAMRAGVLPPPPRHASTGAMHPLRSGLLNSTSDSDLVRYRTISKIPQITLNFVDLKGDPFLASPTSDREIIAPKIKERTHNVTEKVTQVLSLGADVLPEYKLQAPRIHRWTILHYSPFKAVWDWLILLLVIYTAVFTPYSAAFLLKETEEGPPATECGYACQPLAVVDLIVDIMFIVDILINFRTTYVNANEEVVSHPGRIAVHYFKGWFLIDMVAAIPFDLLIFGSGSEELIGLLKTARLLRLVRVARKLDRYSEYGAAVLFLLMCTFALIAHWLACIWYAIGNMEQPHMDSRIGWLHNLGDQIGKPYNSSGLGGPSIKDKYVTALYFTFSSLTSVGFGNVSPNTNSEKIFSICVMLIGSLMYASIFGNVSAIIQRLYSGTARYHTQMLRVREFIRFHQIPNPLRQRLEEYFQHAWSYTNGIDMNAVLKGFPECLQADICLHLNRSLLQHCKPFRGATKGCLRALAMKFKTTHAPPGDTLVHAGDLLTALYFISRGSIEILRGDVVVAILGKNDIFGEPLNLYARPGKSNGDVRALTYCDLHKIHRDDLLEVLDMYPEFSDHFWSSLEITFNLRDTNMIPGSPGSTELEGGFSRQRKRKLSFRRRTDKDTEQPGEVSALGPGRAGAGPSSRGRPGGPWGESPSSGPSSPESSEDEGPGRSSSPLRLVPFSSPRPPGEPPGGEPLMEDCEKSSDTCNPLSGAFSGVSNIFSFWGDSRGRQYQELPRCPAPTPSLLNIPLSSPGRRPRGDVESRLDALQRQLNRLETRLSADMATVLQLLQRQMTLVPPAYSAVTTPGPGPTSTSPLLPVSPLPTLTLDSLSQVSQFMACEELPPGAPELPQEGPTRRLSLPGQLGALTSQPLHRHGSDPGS

Row | Structure (SMILES) | hERG current change (%, negative = inhibition) at 1uM [%]
1 | O=C(O)c1cc(-c2ccccc2)n(-c2ccc(Cl)cc2Cl)n1 | 18.5
2 | O=C(CN(C1CCCCC1)S(=O)(=O)c1ccc(Cl)cc1)NCc1cccnc1 | -60.6
3 | CC(C)C[C@@H](CSc1ccc(Br)cc1)N1CCN(C)CCC1=O | -34.4
4 | COc1ccc(-c2csc(NC(CO)c3nc4ccccc4n3CCOCCO)n2)cc1 (stereo not shown) | -14.7
5 | COc1ccccc1NC(=O)CSc1ccc2nnc(-c3cccnc3)n2n1 | -25.6
6 | CN(C)CCCN1C(=O)c2cccc3c([N+](=O)[O-])ccc(c23)C1=O | 7.12
7 | Cc1nc(-c2ccc(Cl)cc2)sc1C1(C)CC(c2c(Cl)cccc2Cl)=NO1 (stereo not shown) | 17.8
8 | Clc1ncc(CN2CCN(Cc3ccccc3)CC2)s1 | 6.26
9 | COc1ccc(CNC(=O)C(=O)NC2CC(C)(C)NC(C)(C)C2)cc1 | 7.03
10 | CCOC(=O)c1oc2ccc(CNC3CCCCC3)c(Cl)c2c1C.O=C(O)C(=O)O | 1.84
11 | CCOP(=O)(OCC)c1nc(-c2ccc(Cl)cc2)oc1NCc1ccccc1 | 10.1
12 | CC(C)CN(C(=O)C(c1ccccc1)c1ccccc1)c1c(N)n(CC(C)C)c(=O)[nH]c1=O | 3.78
13 | CCOC(=O)c1ccc2nc3c(cc2c1)CCS3 | 12.8
14 | O=C(CN1C(=O)COc2ccc(S(=O)(=O)N3CCCC3)cc21)N1CCCC1 | 14.3
15 | O=C(Cc1cn2ccsc2n1)OCc1ccccc1 | 9.72
16 | COc1ccccc1CNC(=S)NCc1ccc(Cl)cc1 | 6.97
17 | CC1CCCC(n2c(=S)[nH]c3ccccc3c2=O)C1C (stereo not shown) | 5.82
18 | O=C(O)c1ccc(-n2nc(-c3ccccc3)c3ccccc3c2=O)cc1 | 15.9
19 | Cc1csc(SCC(=O)NC(=O)Cc2ccccc2)n1 | 12.5
20 | O=[N+]([O-])c1cc(S(=O)(=O)Nc2cccc(Cl)c2)ccc1N/N=C/c1ccc(N2CCOCC2)cc1 | 10.7
21 | O=C1c2ccccc2C(Nc2ccc(S(=O)(=O)N3CCCCCC3)cc2)N1Cc1ccco1 (stereo not shown) | 4.75
22 | Cc1ccccc1NC(=O)CCS(=O)(=O)c1cccc2nonc12 | 16.8

Row | Structure (SMILES) | hERG current change (%, negative = inhibition) at 1uM [%]
23 | C=CCN(C(=O)CN1CCCCC1)c1nc(-c2ccccc2)cs1 | 3.72
24 | CCc1nnc(NC(=O)CSc2nnc(COc3ccc(C)cc3)n2-c2ccccc2)s1 | 1.49
25 | CCNC(=O)N(CCOC)CC1CCCN(C2Cc3ccccc3C2)C1 (stereo not shown) | 11.7
26 | COc1cccc(N(CC(=O)N2CCN(C)CC2)S(=O)(=O)c2ccccc2)c1 | 5.26
27 | COc1cc(NC(=O)COc2cccc(OC)c2)cc(OC)c1 | -0.639
28 | Cc1ccccc1C(=O)O/N=C1\CCS(=O)(=O)c2sccc21 | 10.4
29 | NC(=O)CCc1nc2cc(C(F)(F)F)ccc2n(Cc2ccccc2)c1=O | 1.09
30 | O=C(C[N+]12CCC(CC1)C(O)C2)c1ccc(Br)cc1.[Br-] (stereo not shown) | 9.26
31 | COc1ccc(CN(CC(=O)NCc2ccccc2)C(=O)CCC(=O)Nc2cc(C)ccn2)cc1 | -2.93
32 | COc1ccc(C(CNC(=O)Cc2ccccc2Cl)N2CCCCC2)cc1 (stereo not shown) | 20.7
33 | O=C(Nc1ccc(F)cc1F)c1ccc(-n2cncn2)nc1 | -1.74
34 | Cc1ccc(C(C)C)c(OC/C(O)=C(\C#N)c2nc3ccccc3[nH]2)c1 | 8.56
35 | O=C(O)c1ccccc1OCC1CCCO1 (stereo not shown) | 15.9
36 | COc1ccccc1-c1noc2ncnc(Nc3cccc(C)c3C)c12 | 8.74
37 | CN(C)CCCN(C(=O)c1cc(-c2cccs2)nc2ccccc12)c1nc2c(F)cccc2s1.Cl | 4.39
38 | C(=N\Nc1nncc2ccccc12)/c1ccccn1 | 3.87
39 | O=[N+]([O-])c1cc(Oc2cccnc2)cc([N+](=O)[O-])c1 | -6.94
40 | CSc1cccc(NC(=O)CSc2ncccc2C(=O)Oc2cccc([N+](=O)[O-])c2)c1 | 5.62
41 | CC(C)(C)C(=O)NC1CC2CCCC(C1)N2C(=O)Nc1ccc(Cl)cc1 (stereo not shown) | 8.91
42 | CCCCN(CCCC)CCCNC(=O)Cn1cc2c(n1)-c1c(oc(C(=O)N3CCCC3)c1C)CC2 | 2.36
43 | COc1cc(CCC(=O)OCC(=O)Nc2ccc(F)c(F)c2F)cc(OC)c1OC | 7.88
44 | CCN(Cc1ccccc1)C(=O)C1CCC(CNc2c(N3CCOCC3)c(=O)c2=O)CC1 (stereo not shown) | 12.5

Row | Structure (SMILES) | hERG current change (%, negative = inhibition) at 1uM [%]
45 | COC(=O)c1ccc(C)c(NS(=O)(=O)c2ccc(OC)cc2)c1 | -2.25
46 | COC(=O)C1=CN(c2ccc(OC)cc2)C=C(C(=O)OC)C1c1ccc(C)c([N+](=O)[O-])c1 | 16.5
47 | CC(=O)[C@H]1[C@H]([C@H](O)[C@H](O)CO)O[C@](O)(C(=O)O)C[C@@H]1O | 14.7
48 | Cc1ccc(CN2[C@@H](c3ccccc3)COCCS2(=O)=O)cc1 | 7.56
49 | C/C(=N\NC(=O)CN1CCCCC1)c1cccc([N+](=O)[O-])c1 | 2.07
50 | Cc1ccc(CN2CCN(CC(=O)N3CCc4ccccc4C3)C2=O)cc1 | -9.47
51 | C=CCN(CC=C)C(=S)NC(=O)/C=C/c1ccccc1 | 3.17
52 | CCOc1ccc(N(CC(=O)NCCc2ccc(OC)cc2)S(C)(=O)=O)cc1 | 5.26
53 | COc1ccc(N2CCN(C(CNC(=O)C(=O)NCCCn3ccnc3)c3ccco3)CC2)cc1 (stereo not shown) | 10.9
54 | CN(C(=O)CS(=O)(=O)c1cccc(Cl)c1)c1ccccc1 | 6.56
55 | O=C(NCc1ccco1)c1ccccc1-c1nc(-c2ccc(F)cc2)no1 | 0.847
56 | O=C(CN(Cc1ccc2c(c1)OCO2)C(=O)CSc1nc2ccccc2o1)NC1CCCCC1 | 12.5
57 | COc1ccc(-c2cccc(C(=O)Nc3cccc(C(=O)O)c3)c2)cc1 | 15.9
58 | O=C(N/N=C/C(Cl)=C\c1ccccc1)c1cnccn1 | 1.92
59 | O=C(COc1ccc(Cl)cc1Cl)N1CCN(c2ccccn2)CC1 | -0.352
60 | O=C(CN(Cc1cccs1)C(=O)CSc1nnc(COc2ccccc2)o1)NC1CCCCC1 | 0.109
61 | Cc1cc(S(=O)(=O)NCCCN2CCOCC2)ccc1Br.Cl | 2.38
62 | Cc1ccc(Cl)cc1N1CCN(C(=O)c2ccccc2SCC(=O)N2CCCC2)CC1 | 0.57
63 | CN1C(=O)[C@H]2[C@@H](/C=C/c3ccccc3)N3C(=O)CN(Cc4ccccc4)C(=O)[C@@]3(C)[C@H]2C1=O | -2.77
64 | O=C(N/N=C/c1cccc(C(F)(F)F)c1)c1cc2c(s1)-c1ccccc1CC2 | 2.97
65 | O=C(Nc1ccc(S(=O)(=O)N2CCCC2)cc1)c1ccccc1 | -6.63
66 | CC(C)CCNC(=O)C(c1ccco1)N(CC1CCCO1)C(=O)Cn1nnc2ccccc21 (stereo not shown) | 15

Row | Structure (SMILES) | hERG current change (%, negative = inhibition) at 1uM [%]
67 | Clc1ccc(N2CCN(Cc3ccc(Br)o3)CC2)cc1 | 11.4
68 | N#CC1(c2ccccc2)CCCN1C(=O)c1ccc(Br)o1 (stereo not shown) | 10.4
69 | CC(NC(=O)Cn1nc(-c2ccccc2)c2ccccc2c1=O)c1ccccc1 (stereo not shown) | 15
70 | O=C(O)CCC(=O)NNc1nc(-c2ccccc2)c2cc(Cl)ccc2n1 | 9.94
71 | COc1ccc(-c2ccc(SCC(=O)Nc3cccc(C(C)=O)c3)nn2)cc1OC | 6.82
72 | CCOc1ccc2nc(/N=C/c3nc(-c4ccccc4)oc3O)sc2c1 | 11.5
73 | O=C1CCc2cc(S(=O)(=O)Nc3ccccc3)ccc2N1 | 3
74 | CCOc1ccc(-c2c(=O)n(O)c3ccccc3[n+]2[O-])cc1 | 21.7
75 | c1ccc(CSc2nnc3c(n2)OC(c2ccco2)Nc2ccccc2-3)cc1 (stereo not shown) | 14.9
76 | Cc1ccc(NC(=O)CSc2nc(C)c(Cc3ccccc3)c(=O)[nH]2)cc1 | 13.7
77 | COc1ccc(-c2noc(CCCC(=O)N3CCOCC3)n2)cc1 | 17.6
78 | C=CCNC(=S)Nc1sc2c(c1C(=O)OCC)CC(C(C)C)OC2 (stereo not shown) | -2.94
79 | COc1ccc(N2CCN(c3ncnc4scc(-c5ccc(C)cc5)c34)CC2)cc1 | 13.2
80 | CCc1ccccc1NC(=O)NNS(=O)(=O)c1cc(C)ccc1C | 10.3
81 | O=S(=O)(Nc1ccc2c(c1)oc1ccccc12)N1CCCC1 | 14.2
82 | O=C1[C@@H]2Cc3c([nH]c4ccccc34)C(c3cccc([N+](=O)[O-])c3)N2C(=O)CN1C1CCN(Cc2ccccc2)CC1 (stereo partly shown) | 5.28
83 | Cc1ccccc1C(=O)Nc1sc2c(c1C(=O)O)CCC2 | 13.9
84 | CC(C)C(=O)NNc1ccccc1 | 7.01
85 | CC1CCN(Cc2c(C(=O)N/N=C/c3cc(Br)ccc3O)nnn2-c2nonc2N)CC1 | 14.4
